Measurements taken from the supplement of paper PMC4894684.
Structures can show the parent of a compound that is named as a salt. ± gives the standard deviation of the averaged measurements. Out of some 1,000 compounds screened, about 15 (2%) showed an effect of 50% or more. Some of the results follow.

System: HFF
Experiment: uninfected host cell viability relative to vehicle control; higher = less host cell toxicity
Conditions: 5 µM; 72 h; oxygen 21 %
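Also: confluent HFF monolayers, run in parallel with the Toxoplasma growth screen as a host toxicity counterscreen.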

SMILES	uninfected host cell viability [%]
O=C1CN=C(c2cccc(Br)c2)c2oc3ccccc3c2N1	96.8 ± 3.9
CN1C[C@H](CNC(=O)OCc2ccccc2)C[C@@H]2c3cccc4c3c(cn4C)C[C@H]21 [Metergoline]	86.8 ± 1.7
CCCN1CCC[C@@H]2Cc3n[nH]cc3C[C@H]21 [(-)-Quinpirole hydrochloride]	86.7 ± 3.7
CCC(Oc1ccc(Cl)cc1)C(=O)OC1C[C@H]2CC[C@@H](C1)N2C (stereo not given in full) [SM-21 maleate]	83.9 ± 0.85
CC12NC(Cc3ccccc31)c1ccccc12 (single isomer, unassigned; (+)) [(+)-MK 801 maleate]	85.9 ± 2.7
COC1(C[S@+]([O-])c2ccccc2)CCN(CCc2c[nH]c3ccc(F)cc23)CC1	80.8 ± 2.7
Cc1nnc2n1-c1sc(CCC(=O)N3CCOCC3)cc1C(c1ccccc1Cl)=NC2	86.4 ± 0.97
CCC[C@@H]1CC2=CC(=O)CC[C@]2(C)[C@H]2CC[C@@]3(C)[C@@H](CC[C@@]3(O)CCC(=O)O)[C@H]12	98.1 ± 1.5
c1ccc2c(c1)OCC(C1=NCCN1)O2 (stereo not given) [Idazoxan hydrochloride]	89.1 ± 3
c1ccc(C2CNCc3ccccc32)cc1 (stereo not given) [4-Phenyl-1,2,3,4-tetrahydroisoquinoline hydrochloride]	92.6 ± 6.4
NC(C(=O)O)c1nn[nH]n1 (racemic) [(RS)-(Tetrazol-5-yl)glycine]	86.1 ± 2.1
CC(=O)N1CC[N+](C)(C)CC1 [4-Acetyl-1,1-dimethylpiperazinium iodide]	95 ± 3.1
CC[C@@H](CO)NC(=O)[C@@H]1C=C2c3cccc4c3c(cn4C)C[C@H]2N(C)C1 [Methysergide maleate]	81.2 ± 3.8
COc1cc2c(c(OC)c1OC)-c1ccc(OC)c(=O)cc1[C@@H](NC(C)=O)CC2 [Colchicine]	76.5 ± 1.7
C[N+]1(C)CCc2cc3c(cc2[C@H]1[C@@H]1OC(=O)c2c1ccc1c2OCO1)OCO3 [(-)-Bicuculline methochloride]	94.2 ± 1.5
C[N+]1(C)CCc2cc3c(cc2[C@H]1[C@@H]1OC(=O)c2c1ccc1c2OCO1)OCO3 [(-)-Bicuculline methiodide]	95.12 ± 0.22
CN1CC[C@@H]2CN3CCc4cccc(c43)[C@@H]2C1 [SDZ SER 082 fumarate]	86.07 ± 0.53
O=c1[nH]oc2c1CCNC2 [THIP hydrochloride]	86.9 ± 2.3
CN1[C@@H]2CC[C@H]1C[C@@H](OC(=O)c1cc(Cl)cc(Cl)c1)C2	85.4 ± 2.2
CNCCc1cnc[nH]1 [N α-Methylhistamine dihydrochloride]	87 ± 1.2
O=C(O)c1nn(Cc2ccc(Cl)cc2Cl)c2ccccc12 [Lonidamine]	93.5 ± 2.3
CN(C)c1ccc(/C=C2\CCCN=C2c2cccnc2)cc1 [DMAB-anabaseine dihydrochloride]	94.4 ± 2.6
CCC1(C2=NCCN2)Cc2ccccc2O1 (stereo not given) [Efaroxan hydrochloride]	85.9 ± 3
CC[C@@H](CO)NC(=O)[C@@H]1C=C2c3cccc4[nH]cc(c34)C[C@H]2N(C)C1 [Methylergometrine maleate]	86.3 ± 2.3
CCOC(=O)c1ncn2c1[C@@H]1CCCN1C(=O)c1cc(OC)ccc1-2	83.2 ± 2.8

SMILES	uninfected host cell viability [%]
NC(N)=Nc1ccc2[nH]c3c(c2c1)C[C@@]1(O)[C@H]2Cc4ccc(O)c5c4[C@@]1(CCN2CC1CC1)[C@H]3O5 [GNTI dihydrochloride]	81.96 ± 0.66
CN1C2CCC1CC(OC(c1ccccc1)c1ccc(Cl)cc1)C2 (stereo not given)	76.9 ± 5.6
CN1CCc2cc3c(cc2C1C1OC(=O)c2c1ccc1c2OCO1)OCO3 (single isomer, unassigned; (+)) [(+)-Bicuculline]	87.1 ± 1.3
CCOC(=O)c1cncn1[C@H](C)c1ccccc1 [Etomidate]	93.19 ± 0.22
Cc1ncsc1CCCl [Chlormethiazole hydrochloride]	97.6 ± 1.6
O=C(CCCN1CCC2(CC1)C(=O)NCN2c1ccccc1)c1ccc(F)cc1 [Spiperone hydrochloride]	85.6 ± 2.4
CCCCC1(C2CCCC2)Cc2cc(OCCCC(=O)O)c(Cl)c(Cl)c2C1=O (stereo not given)	93.3 ± 5
Fc1ccc(C(OCCN2CCN(C/C=C/c3ccccc3)CC2)c2ccc(F)cc2)cc1	82 ± 0.94
O=c1cccc2n1C[C@@H]1CNC[C@H]2C1 [(-)-Cytisine]	88.1 ± 0.92
N[C@@H]1C[C@H]1c1ccccc1 [Tranylcypromine hydrochloride]	89.4 ± 2.9
O[C@H]1[C@H](O)[C@@H](O)CN2CC[C@H](O)[C@H]12 [Castanospermine]	82.95 ± 0.65
O=C(O)C1=CCCN(CCOC(c2ccc(C(F)(F)F)cc2)c2ccc(C(F)(F)F)cc2)C1 [CI 966 hydrochloride]	87.3 ± 2
CN1[C@@H]2C[C@@H](OC(=O)[C@H](CO)c3ccccc3)C[C@H]1[C@@H]1O[C@@H]12 [Scopolamine hydrobromide]	92.2 ± 2.3
CC(=O)[C@H]1CC[C@H]2[C@@H]3CC[C@H]4C[C@](C)(O)CC[C@]4(C)[C@H]3CC[C@]12C [Ganaxolone]	95 ± 1.5
O=C1NC(=O)c2c1c1c3ccccc3n3c1c1c2c2ccccc2n1[C@H]1CC[C@@H]3O1	39.2 ± 11
NC(=S)N/N=C/c1coc2ccccc2c1=O.[Cl][Cu][Cl]	98.2 ± 1.8
Cc1onc(O)c1CC(N)C(=O)O (racemic) [(RS)-AMPA hydrobromide]	84.6 ± 0.87
Cc1onc(O)c1CC(N)C(=O)O (racemic)	98.2 ± 3.1
Oc1ccc2c3c1O[C@H]1c4[nH]c5ccccc5c4C[C@@]4(O)[C@@H](C2)N(CC2CC2)CC[C@]314 [Naltrindole hydrochloride]	81.09 ± 0.49
Cc1cc(C)cc(C(=O)OC2C[C@H]3CC[C@@H](C2)N3C)c1 (stereo not given in full) [Tropanyl-3,5-dimethylbenzoate]	86.53 ± 0.39
S=C=Nc1cccc(C2(N3CCCCC3)CCCCC2)c1 [Metaphit]	82.9 ± 1
O=C1Nc2ccccc2C2(CCN(CCc3ccc(C(F)(F)F)cc3)CC2)O1	87.7 ± 5.5
COC(=O)[C@@H](N)CCCNC(=N)N[N+](=O)[O-] [L-NAME hydrochloride]	95.8 ± 1.7
NCC(O)c1ccc(O)cc1 (stereo not given) [Octopamine hydrochloride]	97 ± 3.6
CCCN(CCC)C1Cc2cc(OC)c(OC)cc2C1	78.55 ± 0.26
